Measured values published in a collection of fitness landscapes (doi:10.1126/science.1257360).
The list shows a part of the results.

B1: PhoQ; a variant is named by its letters at X, in order, P23837 (parent)
chain: MKKLLRLFFPLSLRVRFLLATAAVVLVLSLAYGMVALIGYSVSFDKTTFRLLRGESNLFYTLAKWENNKLHVELPENIDKQSPTMTLIYDENGQLLWAQRDVPWLMKMIQPDWLKSNGFHEIEADVNDTSLLLSGDHSIQQQLQEVREDDDDAEMTHSVAVNVYPATSRMPKLTIVVVDTIPVELKSSYMVWSWFIYVLSANLLLVIPLLWVAAWWSLRPIEALAKEVRELEEHNRELLNPATTRELTSLVRNLNRLLKSERERYDKYRTTLTDLTHSLKTPLXXLQXXLRSLRSEKMSVSDAEPVMLEQISRISQQIGYYLHRASMRGGTLLSRELHPVAPLLDNLTSALNKVYQRKGVNISLDISPEISFVGEQNDFVEVMGNVLDNACKYCLEFVEISARQTDEHLYIVVEDDGPGIPLSKREVIFDRGQRVDTLRPGQGVGLAVAREITEQYEGKIVAGESMLGGARMEVIFGRQHSAPKDE

Variants of: B1
Assay: enrichment ratio after two sorts for PhoP signalling (ratio (wild type AVST 3.29)); higher = more functional
Details: with PhoP (E. coli)

Row | Variant | enrichment ratio
1 | EMHI | ≤ 0.25
2 | MTPC | ≤ 0.25
3 | NLDW | ≤ 0.25
4 | ILYE | ≤ 0.25
5 | YAYC | ≤ 0.25
6 | VIGD | 0.855
7 | WPTL | ≤ 0.25
8 | TGEQ | ≤ 0.25
9 | VDSW | ≤ 0.25
10 | GHSR | ≤ 0.25
11 | ISTN | ≤ 0.25
12 | LSRV | ≤ 0.25
13 | LWEF | ≤ 0.25
14 | GFEK | ≤ 0.25
15 | VFFG | ≤ 0.25
16 | DTQV | ≤ 0.25
17 | QWYV | ≤ 0.25
18 | GMCW | ≤ 0.25
19 | GALN | 6.66
20 | VNYC | ≤ 0.25
21 | FRRN | ≤ 0.25
22 | AWLD | ≤ 0.25
23 | YEDN | ≤ 0.25
24 | TGAH | 9.14

Row | Variant | enrichment ratio
25 | FNAV | ≤ 0.25
26 | VQLQ | ≤ 0.25
27 | NMVY | ≤ 0.25
28 | IDHL | ≤ 0.25
29 | AHLE | 12.9
30 | ADIF | ≤ 0.25
31 | GYVP | ≤ 0.25
32 | FRTK | ≤ 0.25
33 | MHPF | ≤ 0.25
34 | TQMH | 9.69
35 | SKGQ | ≤ 0.25
36 | GRFI | ≤ 0.25
37 | YLAR | ≤ 0.25
38 | FVRD | ≤ 0.25
39 | ANHT | ≤ 0.25
40 | NRDM | ≤ 0.25
41 | HLPY | ≤ 0.25
42 | GRKV | ≤ 0.25
43 | IYNP | ≤ 0.25
44 | PTFN | ≤ 0.25
45 | PEDD | ≤ 0.25
46 | DQNF | ≤ 0.25
47 | TVDL | ≤ 0.25
48 | WGYF | ≤ 0.25

Row | Variant | enrichment ratio
49 | YWHI | ≤ 0.25
50 | NCRF | ≤ 0.25
51 | TCVE | ≤ 0.25
52 | TMFV | 0.532
53 | LTVN | ≤ 0.25
54 | ELTG | ≤ 0.25
55 | QYHS | ≤ 0.25
56 | FQQD | ≤ 0.25
57 | VDLE | ≤ 0.25
58 | NNQM | 30
59 | SCGR | ≤ 0.25
60 | IACQ | ≤ 0.25
61 | QSTD | ≤ 0.25
62 | RQWD | ≤ 0.25
63 | ERKP | ≤ 0.25
64 | MEKN | ≤ 0.25
65 | DVVW | ≤ 0.25
66 | HGLT | 0.419
67 | LVDR | ≤ 0.25
68 | HWSV | ≤ 0.25
69 | PRDM | ≤ 0.25
70 | FSWE | ≤ 0.25
71 | PVTG | ≤ 0.25
72 | ETLK | ≤ 0.25

Row | Variant | enrichment ratio
73 | YFVG | ≤ 0.25
74 | DRFL | ≤ 0.25
75 | SKTA | 0.276
76 | QCTP | ≤ 0.25
77 | PVNF | ≤ 0.25
78 | VTKE | ≤ 0.25
79 | YKIL | ≤ 0.25
80 | MGVH | 3.55
81 | YRYP | ≤ 0.25
82 | QCRH | ≤ 0.25
83 | YYYF | ≤ 0.25
84 | TDPF | ≤ 0.25
85 | YTPL | ≤ 0.25
86 | DVCL | ≤ 0.25
87 | NMVH | ≤ 0.25
88 | QIVW | ≤ 0.25
89 | IYKV | 1.02
90 | GQLA | ≤ 0.25
91 | AWWC | ≤ 0.25
92 | SKSP | ≤ 0.25
93 | FPDN | ≤ 0.25
94 | QEGA | ≤ 0.25
95 | NSVQ | ≤ 0.25
96 | NIKY | ≤ 0.25

Row | Variant | enrichment ratio
97 | GYSY | ≤ 0.25
98 | TWTK | ≤ 0.25
99 | HIHF | ≤ 0.25
100 | ISNI | ≤ 0.25
101 | YLAK | ≤ 0.25
102 | VMYG | ≤ 0.25
103 | NHNA | ≤ 0.25
104 | YHQQ | ≤ 0.25
105 | EEIC | ≤ 0.25
106 | DDTA | ≤ 0.25
107 | KQVT | ≤ 0.25
108 | LPRN | ≤ 0.25
109 | QGRH | ≤ 0.25
110 | DDCQ | ≤ 0.25
111 | HISS | ≤ 0.25
112 | KSRN | ≤ 0.25
113 | GMCK | ≤ 0.25
114 | LLDK | ≤ 0.25
115 | DPAS | ≤ 0.25
116 | DDQF | ≤ 0.25
117 | LSIE | ≤ 0.25
118 | KKCS | ≤ 0.25
119 | VGAR | ≤ 0.25
120 | PRDV | ≤ 0.25

Row | Variant | enrichment ratio
121 | DVEA | ≤ 0.25
122 | YSIY | ≤ 0.25
123 | GHSL | ≤ 0.25
124 | PHFQ | ≤ 0.25
125 | SHMK | ≤ 0.25
126 | ARWT | ≤ 0.25
127 | HITA | ≤ 0.25
128 | QVWW | 2.54
129 | PDDY | ≤ 0.25
130 | ASRP | ≤ 0.25
131 | HDQM | ≤ 0.25
132 | EDPD | ≤ 0.25
133 | ILIG | ≤ 0.25
134 | NQDL | ≤ 0.25
135 | WDFH | ≤ 0.25
136 | WILA | ≤ 0.25
137 | WTCK | ≤ 0.25
138 | YRIL | ≤ 0.25
139 | PYIK | ≤ 0.25
140 | DAND | ≤ 0.25
141 | DSAD | ≤ 0.25
142 | YAPS | 0.949
143 | DTPE | ≤ 0.25
144 | ITIY | ≤ 0.25

Row | Variant | enrichment ratio
145 | YYSS | ≤ 0.25
146 | TYWY | ≤ 0.25
147 | RCCK | 2.03
148 | LCAF | ≤ 0.25
149 | IWKC | ≤ 0.25
150 | DGMG | ≤ 0.25
151 | LCGW | ≤ 0.25
152 | HMAN | ≤ 0.25
153 | EMAA | ≤ 0.25
154 | PCGY | ≤ 0.25
155 | PEIP | ≤ 0.25
156 | MNKG | ≤ 0.25
157 | VICA | ≤ 0.25
158 | YNHC | ≤ 0.25
159 | LWKC | ≤ 0.25
160 | VIYC | ≤ 0.25
161 | AWEY | ≤ 0.25
162 | PIQE | ≤ 0.25
163 | RTSS | ≤ 0.25
164 | KYTP | ≤ 0.25
165 | WGGD | ≤ 0.25
166 | FWLL | ≤ 0.25
167 | VDYN | ≤ 0.25
168 | MFNV | ≤ 0.25

Row | Variant | enrichment ratio
169 | KTLE | ≤ 0.25
170 | EKVL | ≤ 0.25
171 | LWPF | ≤ 0.25
172 | FYQT | ≤ 0.25
173 | ICMW | ≤ 0.25
174 | AWMC | ≤ 0.25
175 | LGLD | ≤ 0.25
176 | GFDH | ≤ 0.25
177 | LNGC | ≤ 0.25
178 | SWDP | ≤ 0.25
179 | APPA | ≤ 0.25
180 | SRLH | ≤ 0.25
181 | EMAF | ≤ 0.25
182 | KCSI | ≤ 0.25
183 | EFST | ≤ 0.25
184 | YAQL | ≤ 0.25
185 | DCKF | ≤ 0.25
186 | TMYL | ≤ 0.25
187 | FMGA | ≤ 0.25
188 | SSVI | 10.3
189 | GWKF | ≤ 0.25
190 | NNDP | ≤ 0.25
191 | DDRN | ≤ 0.25
192 | AMHS | ≤ 0.25

Row | Variant | enrichment ratio
193 | VEVG | ≤ 0.25
194 | PWTL | ≤ 0.25
195 | FHAA | ≤ 0.25
196 | MRLR | ≤ 0.25
197 | LKNG | ≤ 0.25
198 | KHVP | ≤ 0.25
199 | NFYW | ≤ 0.25
200 | RTWL | ≤ 0.25
201 | SWQN | ≤ 0.25
202 | PYYQ | ≤ 0.25
203 | DYQR | ≤ 0.25
204 | LMHK | ≤ 0.25
205 | EFLY | ≤ 0.25
206 | RCLC | ≤ 0.25
207 | RTET | ≤ 0.25
208 | FYPL | ≤ 0.25
209 | EPRS | ≤ 0.25
210 | GCAP | ≤ 0.25
211 | FDLC | ≤ 0.25
212 | MTIF | ≤ 0.25
213 | VFTW | ≤ 0.25
214 | VEIP | ≤ 0.25
215 | PMAQ | ≤ 0.25
216 | DIEG | ≤ 0.25

Row | Variant | enrichment ratio
217 | FHVP | ≤ 0.25
218 | LSWV | 1.23
219 | WLLI | ≤ 0.25
220 | VSWK | ≤ 0.25
221 | IVGI | ≤ 0.25
222 | VWCT | ≤ 0.25
223 | GDCA | ≤ 0.25
224 | QASI | 12.8
225 | HPGP | ≤ 0.25
226 | MQDQ | ≤ 0.25
227 | AVSI | 13.1
228 | VSMY | ≤ 0.25
229 | TYHH | ≤ 0.25
230 | HYSM | ≤ 0.25
231 | LTRN | ≤ 0.25
232 | NACW | ≤ 0.25
233 | QRSA | ≤ 0.25
234 | STFE | ≤ 0.25
235 | ASGN | 4.65
236 | PHPS | ≤ 0.25
237 | KDDN | ≤ 0.25
238 | IKHH | ≤ 0.25
239 | TEGP | ≤ 0.25
240 | LKAA | ≤ 0.25

Row | Variant | enrichment ratio
241 | LRMC | ≤ 0.25
242 | MCPY | ≤ 0.25
243 | SEKS | ≤ 0.25
244 | DHER | ≤ 0.25
245 | VRRG | ≤ 0.25
246 | WGYV | ≤ 0.25
247 | TTTS | 14.1
248 | FFQH | ≤ 0.25
249 | WRWM | ≤ 0.25
250 | DWFM | ≤ 0.25
251 | VRRV | ≤ 0.25
252 | LNTY | ≤ 0.25
253 | NMRW | ≤ 0.25
254 | FGCF | ≤ 0.25
255 | DYLI | ≤ 0.25
256 | YAYK | ≤ 0.25
257 | LYQD | ≤ 0.25
258 | HPSY | ≤ 0.25
259 | KGWD | ≤ 0.25
260 | PQKT | ≤ 0.25
261 | VTLE | 3.68
262 | NKMH | ≤ 0.25
263 | WRQH | ≤ 0.25
264 | RHSK | ≤ 0.25

Row | Variant | enrichment ratio
265 | CQSH | ≤ 0.25
266 | RNPK | ≤ 0.25
267 | GTLP | ≤ 0.25
268 | IGEW | ≤ 0.25
269 | DSRP | ≤ 0.25
270 | PAFN | ≤ 0.25
271 | VARD | ≤ 0.25
272 | TIWS | 15.7
273 | HIHQ | ≤ 0.25
274 | EHFQ | ≤ 0.25
275 | MGIA | ≤ 0.25
276 | YFQR | ≤ 0.25
277 | PNHY | ≤ 0.25
278 | AVFL | ≤ 0.25
279 | YWSD | ≤ 0.25
280 | ISIG | ≤ 0.25
281 | NYRP | ≤ 0.25
282 | RTRR | ≤ 0.25
283 | TDYL | ≤ 0.25
284 | DGAT | ≤ 0.25
285 | THKA | ≤ 0.25
286 | LVDN | ≤ 0.25
287 | QEWP | ≤ 0.25
288 | ALFT | ≤ 0.25

Row | Variant | enrichment ratio
289 | RDGK | ≤ 0.25
290 | HDTD | ≤ 0.25
291 | YDSC | ≤ 0.25
292 | ACVI | 4.3
293 | LRES | ≤ 0.25
294 | EFQL | ≤ 0.25
295 | GEFI | ≤ 0.25
296 | QCCH | ≤ 0.25
297 | MSDG | ≤ 0.25
298 | HRAA | ≤ 0.25
299 | YLRK | ≤ 0.25
300 | LNSV | ≤ 0.25
301 | HWYP | ≤ 0.25
302 | FFVV | ≤ 0.25
303 | MHDH | ≤ 0.25
304 | KPYL | ≤ 0.25
305 | HPSC | ≤ 0.25
306 | PNLG | ≤ 0.25
